Binding signal data for 32 sequences are collected here from paper PMC12820563, “FoxP3 forms a head-to-head dimer in vivo and stabilizes its multimerization on adjacent microsatellites”.

This is one part of the list.

This test addresses T1, MBP-FoxP1dN (Mus musculus, UniProt P58462 326-579).
T1 sequence: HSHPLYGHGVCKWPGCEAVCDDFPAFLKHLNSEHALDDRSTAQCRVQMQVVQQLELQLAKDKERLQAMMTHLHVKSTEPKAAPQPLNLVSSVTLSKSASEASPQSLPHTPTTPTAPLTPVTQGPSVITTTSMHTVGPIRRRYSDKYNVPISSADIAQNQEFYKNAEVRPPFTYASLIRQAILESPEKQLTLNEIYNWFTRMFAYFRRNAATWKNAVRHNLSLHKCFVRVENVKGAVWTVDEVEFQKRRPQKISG
The experiment in a line: PD-seq (MBP pull-down with sequencing); 20 mM Tris-HCl pH 7.5, 100 mM NaCl, 1.5 mM MgCl2, 0.4 uM protein, 0.1 uM dsDNA library, 30 min, room temperature, amylose pull-down; high values mean tight binding. To be noted: protein: recombinant; tags: His6-MBP; chain copies: 2; dsDNA, one strand shown. Put shortly:
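Amylose resin was used to capture complexes formed during 30 min at room temperature in Tris pH 7.5 buffer with NaCl and MgCl2 between 0.4 µM His6-MBP-tagged mouse FoxP3 or FoxP1 fragment lacking the N-terminus, expressed in E. coli, and 0.1 µM Klenow-filled double-stranded degenerate DNA library. After three washes, the DNA was released with proteinase K, barcoded by PCR and sequenced on Illumina. Binding is pooled-replicate reads-per-million enrichment, pull-down over input.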
As to “GATGATTGTTCTCCCAGCTGATGAATTTCTGCTATCGAGTAAACAAATTTTCCTAATCTTTCTGTTCAAGCGCCATCTAC”, the binding signal was 0.977 RPM ratio (pull-down/input).

As for “GATGATTGTTCTCCCAGCTGATGAATTAGCAGACTCGAGTAAACAAATTTTCCTAATCTTTCTGTTCAAGCGCCATCTAC”, the binding signal was 0.878 RPM ratio (pull-down/input). “GATGATTGTTCTCCCAGCTGATGAATTGATCACGTCGAGTAAACAAATTTTCCTAATCTTTCTGTTCAAGCGCCATCTAC”: the binding signal was 1.01 RPM ratio (pull-down/input). Take “GATGATTGTTCTCCCAGCTGATGAATTGTACTTATCGAGTAAACAAATTTTCCTAATCTTTCTGTTCAAGCGCCATCTAC”: the binding signal is 1.12 RPM ratio (pull-down/input). As for “GATGATTGTTCTCCCAGCTGATGAATTCACTGCCTCGAGTAAACAAATTTTCCTAATCTTTCTGTTCAAGCGCCATCTAC”, the binding signal was 0.84 RPM ratio (pull-down/input).

As for “GATGATTGTTCTCCCAGCTGATGAATTCAGACGGTCGAGTAAACAAATTTTCCTAATCTTTCTGTTCAAGCGCCATCTAC”, the binding signal is 0.766 RPM ratio (pull-down/input).

In the case of “GATGATTGTTCTCCCAGCTGATGAATTTTCGATCTCGAGTAAACAAATTTTCCTAATCTTTCTGTTCAAGCGCCATCTAC”, the binding signal is 0.923 RPM ratio (pull-down/input).

“GATGATTGTTCTCCCAGCTGATGAATTGCCATTATCGAGTAAACAAATTTTCCTAATCTTTCTGTTCAAGCGCCATCTAC”: the binding signal was 1.16 RPM ratio (pull-down/input). With “GATGATTGTTCTCCCAGCTGATGAATTATTTACCTCGAGTAAACAAATTTTCCTAATCTTTCTGTTCAAGCGCCATCTAC”, the binding signal is 1.86 RPM ratio (pull-down/input). As to “GATGATTGTTCTCCCAGCTGATGAATTGTAATGATCGAGTAAACAAATTTTCCTAATCTTTCTGTTCAAGCGCCATCTAC”, the binding signal is 1.13 RPM ratio (pull-down/input). In the case of “GATGATTGTTCTCCCAGCTGATGAATTTCAAACCTCGAGTAAACAAATTTTCCTAATCTTTCTGTTCAAGCGCCATCTAC”, the binding signal is 0.785 RPM ratio (pull-down/input). As to “GATGATTGTTCTCCCAGCTGATGAATTGTGTCCTTCGAGTAAACAAATTTTCCTAATCTTTCTGTTCAAGCGCCATCTAC”, the binding signal was 1.21 RPM ratio (pull-down/input). For the sequence “GATGATTGTTCTCCCAGCTGATGAATTCCCTGTGTCGAGTAAACAAATTTTCCTAATCTTTCTGTTCAAGCGCCATCTAC”, the binding signal was 0.851 RPM ratio (pull-down/input). As for “GATGATTGTTCTCCCAGCTGATGAATTTCCACTTTCGAGTAAACAAATTTTCCTAATCTTTCTGTTCAAGCGCCATCTAC”, the binding signal was 0.875 RPM ratio (pull-down/input). The result for “GATGATTGTTCTCCCAGCTGATGAATTAAATATGTCGAGTAAACAAATTTTCCTAATCTTTCTGTTCAAGCGCCATCTAC” reads 1.07 RPM ratio (pull-down/input); that for “GATGATTGTTCTCCCAGCTGATGAATTGAGAAGGTCGAGTAAACAAATTTTCCTAATCTTTCTGTTCAAGCGCCATCTAC”, 0.768 RPM ratio (pull-down/input). Regarding “GATGATTGTTCTCCCAGCTGATGAATTTCGTTGGTCGAGTAAACAAATTTTCCTAATCTTTCTGTTCAAGCGCCATCTAC”, the binding signal is 0.899 RPM ratio (pull-down/input). On to “GATGATTGTTCTCCCAGCTGATGAATTATCGGCATCGAGTAAACAAATTTTCCTAATCTTTCTGTTCAAGCGCCATCTAC”, for which the binding signal is 1.02 RPM ratio (pull-down/input).

For “GATGATTGTTCTCCCAGCTGATGAATTGACCGATTCGAGTAAACAAATTTTCCTAATCTTTCTGTTCAAGCGCCATCTAC”, the binding signal was 0.987 RPM ratio (pull-down/input). Turning to “GATGATTGTTCTCCCAGCTGATGAATTGGTAAGTTCGAGTAAACAAATTTTCCTAATCTTTCTGTTCAAGCGCCATCTAC”, the binding signal was 0.98 RPM ratio (pull-down/input). Take “GATGATTGTTCTCCCAGCTGATGAATTGTGAAGGTCGAGTAAACAAATTTTCCTAATCTTTCTGTTCAAGCGCCATCTAC”: the binding signal was 0.931 RPM ratio (pull-down/input). As for “GATGATTGTTCTCCCAGCTGATGAATTGAATCCTTCGAGTAAACAAATTTTCCTAATCTTTCTGTTCAAGCGCCATCTAC”, the binding signal is 0.865 RPM ratio (pull-down/input). The result for “GATGATTGTTCTCCCAGCTGATGAATTATAGAGCTCGAGTAAACAAATTTTCCTAATCTTTCTGTTCAAGCGCCATCTAC” reads 0.804 RPM ratio (pull-down/input). “GATGATTGTTCTCCCAGCTGATGAATTCCTTACCTCGAGTAAACAAATTTTCCTAATCTTTCTGTTCAAGCGCCATCTAC”: the binding signal is 0.756 RPM ratio (pull-down/input). The result for “GATGATTGTTCTCCCAGCTGATGAATTTATGGTGTCGAGTAAACAAATTTTCCTAATCTTTCTGTTCAAGCGCCATCTAC” reads 1.15 RPM ratio (pull-down/input). In the case of “GATGATTGTTCTCCCAGCTGATGAATTATGTAGGTCGAGTAAACAAATTTTCCTAATCTTTCTGTTCAAGCGCCATCTAC”, the binding signal was 1.01 RPM ratio (pull-down/input). Turning to “GATGATTGTTCTCCCAGCTGATGAATTGTGACAGTCGAGTAAACAAATTTTCCTAATCTTTCTGTTCAAGCGCCATCTAC”, the binding signal is 1.07 RPM ratio (pull-down/input). Consider “GATGATTGTTCTCCCAGCTGATGAATTTTCTCACTCGAGTAAACAAATTTTCCTAATCTTTCTGTTCAAGCGCCATCTAC”, for which the binding signal was 0.952 RPM ratio (pull-down/input).

As for “GATGATTGTTCTCCCAGCTGATGAATTCCGGCTGTCGAGTAAACAAATTTTCCTAATCTTTCTGTTCAAGCGCCATCTAC”, the binding signal was 0.761 RPM ratio (pull-down/input). Regarding “GATGATTGTTCTCCCAGCTGATGAATTGTCCTCCTCGAGTAAACAAATTTTCCTAATCTTTCTGTTCAAGCGCCATCTAC”, the binding signal is 1.03 RPM ratio (pull-down/input). Take “GATGATTGTTCTCCCAGCTGATGAATTGATGTTGTCGAGTAAACAAATTTTCCTAATCTTTCTGTTCAAGCGCCATCTAC”: the binding signal is 2.52 RPM ratio (pull-down/input). In the case of “GATGATTGTTCTCCCAGCTGATGAATTACATCGGTCGAGTAAACAAATTTTCCTAATCTTTCTGTTCAAGCGCCATCTAC”, the binding signal is 0.978 RPM ratio (pull-down/input).
